Assay results as given in PubChem BioAssay AID1460 (National Center for Advancing Translational Sciences (NCATS), 2008).
Several values for one entry are separate records, joined by “and”; a condition that tells them apart may be missing. Equal values may be shown once. Out of some 270,000 compounds screened, about 5,800 (2.1%) were called active. This list was built around the results that the source calls inconclusive (neither active nor inactive); the mix of calls is not that of the screen. Calls follow the shape of the dose curve; as a rule, active = well fitted inhibition curve with a large enough effect; inconclusive = small, poorly fitted or top-dose-only effect; inactive = flat fitted curve, though single readings scatter. Potencies of inconclusive entries are doubtful fits and often do not repeat.

target: Microtubule-associated protein tau (Homo sapiens) (UniProt P10636); assay: qHTS for Inhibitors of Tau Fibril Formation, Thioflavin T Binding; settings: recombinant tau K18 P301L (four-repeat tau fragment), heparin-induced fibrillization, ThT fluorescence; series mostly up to 57.4 µM; also: nearly all actives have a fitted effect of over 55% in size
How it was run: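 Heparin-induced fibrillization of the P301L-mutant K18 repeat-domain fragment of human tau was followed by ThT binding in quantitative high-throughput format.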
Potency is read from the fitted curve at half-maximal effect; tags tell the direction and shape of the fitted curve.

Sequence of UniProt P10636 (P10636 whole entry, looked up, the tested form may be a part): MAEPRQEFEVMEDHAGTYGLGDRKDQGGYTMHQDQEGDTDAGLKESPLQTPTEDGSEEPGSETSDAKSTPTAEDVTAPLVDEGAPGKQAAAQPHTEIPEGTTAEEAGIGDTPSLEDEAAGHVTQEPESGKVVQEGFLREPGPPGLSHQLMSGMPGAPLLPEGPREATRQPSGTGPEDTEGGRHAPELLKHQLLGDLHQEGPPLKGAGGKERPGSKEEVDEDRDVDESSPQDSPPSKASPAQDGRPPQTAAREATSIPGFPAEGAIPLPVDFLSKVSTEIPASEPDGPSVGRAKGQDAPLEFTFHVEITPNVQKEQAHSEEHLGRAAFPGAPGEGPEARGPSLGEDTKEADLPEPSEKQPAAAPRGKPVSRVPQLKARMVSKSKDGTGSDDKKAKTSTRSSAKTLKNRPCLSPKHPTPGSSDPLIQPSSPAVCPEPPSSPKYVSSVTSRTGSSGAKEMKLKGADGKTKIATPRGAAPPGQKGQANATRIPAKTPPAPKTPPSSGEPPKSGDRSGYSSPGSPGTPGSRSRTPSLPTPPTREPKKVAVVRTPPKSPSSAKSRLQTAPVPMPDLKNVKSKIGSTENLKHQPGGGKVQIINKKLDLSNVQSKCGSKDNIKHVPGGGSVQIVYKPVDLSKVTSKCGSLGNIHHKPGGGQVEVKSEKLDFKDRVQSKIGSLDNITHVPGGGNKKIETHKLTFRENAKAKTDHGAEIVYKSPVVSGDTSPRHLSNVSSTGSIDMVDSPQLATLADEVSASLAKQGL

Q: How did the Potency turn out when CC(C)(C)c1ccc(-c2nc3c(C#N)c(-c4ccc5c(c4)OCO5)ccn3n2)cc1 was run?
A: inconclusive: 2.51 µM [inhibitor, full curve]

Q: With CCCOC(=O)CC1C(=O)NCCN1Cc1ccc(F)cc1 (configuration not stated) as the compound, how does the Potency read?
A: inconclusive: 20 µM [inhibitor, partial curve]

Q: For COc1cc(/C=N/n2c(-c3cc(C)[nH]n3)n[nH]c2=S)ccc1O, which Potency is on record?
A: inactive

Q: Which Potency does the source give for O=C(c1ccco1)N1CCN(C/C=C/c2ccccc2)CC1 here?
A: inconclusive: 11.2 µM [inhibitor, partial curve]

Q: How did the Potency turn out when CCOc1ccc(OCC)c(NC(=O)c2cnn(-c3ccc(F)cc3)c2-n2cccc2)c1 was run?
A: inconclusive: 28.2 µM [inhibitor, partial curve, poor fit]

Q: How did the Potency turn out when CC(C)OC(=O)c1sc2nc3c(cc2c1N)C(=O)CCC3 was run?
A: inconclusive: 2 µM [inhibitor, partial curve]

Q: Which Potency does the source give for CC1=NN(Cc2ccccc2)C(=O)C1C(c1ccc(Cl)cc1)C(C#N)C#N (configuration not stated) here?
A: inconclusive: 28.2 µM [inhibitor, single point]

Q: Which Potency does the source give for O=C(O)c1ccccc1/C=N/Nc1ccc(S(=O)(=O)N2CCOCC2)cc1[N+](=O)[O-] here?
A: inconclusive: 15.8 µM [inhibitor, partial curve]

Q: For O=C(N1CCOCC1)n1nnc2ccccc21, which Potency is on record?
A: inactive

Q: Which Potency does the source give for Oc1c(Br)cc(Br)cc1C=NCc1ccc(F)cc1 here?
A: active: 20 µM

Q: For O=C1Nc2ccc(Br)cc2/C1=N/N=C/C1=C(N2CCOCC2)C(=C\c2ccccc2)/CC1, which Potency is on record?
A: active: 4.47 µM

Q: How did the Potency turn out when O=C1ON=C(c2ccc(Cl)cc2)/C1=C/c1ccc(O)cc1 was run?
A: inconclusive: 10 µM [inhibitor, partial curve]

Q: For CCC(=NCCc1c(C)[nH]c2ccc(OC(F)(F)F)cc12)C1=C(O)CC(c2ccccc2)CC1=O (configuration not stated), which Potency is on record?
A: inconclusive: 20 µM [inhibitor, single point]

Q: Which Potency does the source give for C=CCn1c(O)c(C2=c3ccccc3=NC2=O)sc1=Nc1ccc(O)cc1 here?
A: active: 12.6 µM

Q: CCN(CC)C(=O)c1c([N+](=O)[O-])c(C(C)(C)C)nn1C was tested. Which Potency did it give?
A: inconclusive: 44.7 µM [inhibitor, single point]

Q: For CCCCn1cc2c(c1-c1ccc(Br)cc1)c(=O)n(C)c(=O)n2C, which Potency is on record?
A: inconclusive: 28.2 µM [inhibitor, single point]

Q: With CCOc1ccc(-c2cc3c(=O)n(Cc4nc(-c5ccc(OCC)c(OC)c5)oc4C)ccn3n2)cc1Cl as the compound, how does the Potency read?
A: inactive

Q: For CC(=O)Nc1ccc(-c2csc(Nc3cc(C)ccn3)n2)cc1, which Potency is on record?
A: active: 7.08 µM

Q: How did the Potency turn out when Cc1ccc2nc(CSc3nnc(NC(=O)C(C)C)s3)cc(=O)n2c1 was run?
A: inactive

Q: How did the Potency turn out when C/C(=N\NC(=O)c1ccc(C)cc1C)c1ccc(-n2ccnc2)cc1 was run?
A: inconclusive: 5.62 µM [inhibitor, partial curve]

Q: Cc1nn(C)c(C)c1NC(=O)/C(C#N)=C\N(C)C was tested. Which Potency did it give?
A: inactive

Q: O=C(CSc1ccnc(=O)[nH]1)NCc1ccc(F)cc1 was tested. Which Potency did it give?
A: inactive

Q: For Cc1nc(-c2ccccc2)nc2sc(C(=O)c3ccc(F)cc3)c(N)c12, which Potency is on record?
A: inconclusive: 3.98 µM [inhibitor, full curve]

Q: How did the Potency turn out when Cc1ccccc1N1CCN(C(=S)c2ccc(-c3cccc([N+](=O)[O-])c3)o2)CC1 was run?
A: inconclusive: 2 µM [inhibitor, full curve]

Q: With Cc1ccc(C)n1NC(=O)c1ccc(O)cc1 as the compound, how does the Potency read?
A: inconclusive: 22.4 µM [inhibitor, single point]

Q: With CN(C(=O)Nc1ccc(Cl)cc1Cl)[C@H]1c2cc(Br)ccc2OC[C@H]1CO as the compound, how does the Potency read?
A: inconclusive: 39.8 µM [inhibitor, partial curve]

Q: Which Potency does the source give for CN1CCN(C2=CC3=CC(=C(C#N)C#N)CCC3CC2)CC1 (configuration not stated) here?
A: inconclusive: 14.1 µM [activator, partial curve]

Q: COc1cccc(-c2cc3c(-n4cccc4)ncnc3o2)c1 was tested. Which Potency did it give?
A: inconclusive: 7.94 µM [inhibitor, full curve]

Q: With Cn1c[n+](C)cc1/C=N/O as the compound, how does the Potency read?
A: inactive

Q: With Cc1ccc(S(=O)(=O)Nn2c(O)c(C=C3N=c4ccccc4=N3)sc2=S)cc1 as the compound, how does the Potency read?
A: active: 11.2 µM

Q: How did the Potency turn out when O=[N+]([O-])c1ccc(NC2CCCC2)cc1 was run?
A: inconclusive: 14.1 µM [inhibitor, partial curve]

Q: For COc1ccc(-c2cc(=O)[nH]c(=O)[nH]2)cc1, which Potency is on record?
A: inactive

Q: With O=C(COc1ccccc1[N+](=O)[O-])Nc1ccc(NC(=O)c2cc3ccccc3o2)cc1 as the compound, how does the Potency read?
A: inconclusive: 39.8 µM [inhibitor, single point]

Q: For CC(C)NC(=O)COC(=O)/C=C/c1ccco1, which Potency is on record?
A: inactive

Q: Which Potency does the source give for COc1cccc(NC(=O)C(NCC2CCCCC2)c2ccccc2)c1 (configuration not stated) here?
A: inactive

Q: With N#CC1CC(c2ccc([N+](=O)[O-])cc2)=NN1c1ccc([N+](=O)[O-])cc1 (configuration not stated) as the compound, how does the Potency read?
A: active: 3.16 µM

Q: For CCCC1c2ccc(C)n2CCN1C(=O)Nc1ccccc1Cl (configuration not stated), which Potency is on record?
A: inconclusive: 15.8 µM [inhibitor, partial curve]

Q: Which Potency does the source give for COC(=O)N[C@@H](CCc1ccccc1)[C@]1(C(=O)OC)CCCC1=O here?
A: inactive

Q: With COc1ccc(-n2ncc3c(NC(C)C)ncnc32)cc1 as the compound, how does the Potency read?
A: inconclusive: 25.1 µM [inhibitor, partial curve, poor fit]

Q: Which Potency does the source give for CC(C)(C)OC(=O)N1CCC(c2c(C(=O)N3CCN(c4cccc(Cl)c4)CC3)cnn2-c2cccc(Cl)c2)CC1 here?
A: inconclusive: 6.31 µM [inhibitor, partial curve]

Q: With COc1ccc(C)cc1NC(=O)CSc1nc(=O)n(Cc2ccco2)c2c1CCC2 as the compound, how does the Potency read?
A: inconclusive: 20 µM [inhibitor, single point]

Q: CCOc1ccc(NC(=S)NN(C)C(=S)Nc2ccc(OCC)cc2)cc1 was tested. Which Potency did it give?
A: inconclusive: 12.6 µM [inhibitor, partial curve]

Q: With O=C(NCc1ccc(Cl)cc1)c1ccc2c(c1)nnn2C1CCCC1 as the compound, how does the Potency read?
A: inactive

Q: With CCCCc1ccc(NC(=O)Cn2cnc3c(oc4ccccc43)c2=O)cc1 as the compound, how does the Potency read?
A: inactive

Q: How did the Potency turn out when Cc1cc(/C=c2\sc3nc4ccccc4n3c2=O)c(C)n1-c1ccc(C(=O)O)cc1 was run?
A: inconclusive: 8.91 µM [inhibitor, full curve]

Q: How did the Potency turn out when N/C(=N\OC(=O)c1cccc([N+](=O)[O-])c1)c1cccnc1 was run?
A: inconclusive: 12.6 µM [inhibitor, partial curve]

Q: For O=C1C2C3C=CC(C3)C2C(=O)N1c1ccc2c(c1)OCO2 (configuration not stated), which Potency is on record?
A: active: 31.6 µM

Q: How did the Potency turn out when CCOC(=O)N1CCN(c2c(N3CC=C(c4ccccc4)CC3)c(=O)c2=O)CC1 was run?
A: inconclusive: 39.8 µM [inhibitor, single point]

Q: How did the Potency turn out when CC1=CC(C)(C)Nc2ccc(OC(=O)C(C)N3C(=O)c4ccccc4C3=O)cc21 (configuration not stated) was run?
A: inactive

Q: For COc1ccc(N2CCC(CNC(=O)Nc3ccccc3)C2)cc1 (configuration not stated), which Potency is on record?
A: inconclusive: 12.6 µM [inhibitor, partial curve]

Q: For CCN(CC)S(=O)(=O)c1cccc(NC(=O)c2cc(-c3cccs3)nn2-c2ccccc2)c1, which Potency is on record?
A: inactive

Q: How did the Potency turn out when COc1ccccc1C1=Nn2c(COc3ccccc3)nnc2SC1 was run?
A: inconclusive: 28.2 µM [inhibitor, single point]

Q: Cc1nn(-c2ccccc2)c(C)c1C(=O)OCC(=O)NC12CC3CC(CC(C3)C1)C2 was tested. Which Potency did it give?
A: inactive

Q: With Cc1ccc(NC(=O)c2cccc(C(=O)OC(C)C)n2)c(Br)c1 as the compound, how does the Potency read?
A: inconclusive: 39.8 µM [inhibitor, single point]

Q: For COC(=O)CNC(=O)C(=O)OC, which Potency is on record?
A: inactive

Q: Cc1cc(C)nc(SCc2ccc(C(=O)N/N=C/C3CCCCC3)cc2)n1 was tested. Which Potency did it give?
A: inconclusive: 10 µM [inhibitor, partial curve]

Q: With CC(C)n1cc(/C=N/NC(=O)COc2cccc3cccnc23)c2ccccc21 as the compound, how does the Potency read?
A: inconclusive: 8.91 µM [inhibitor, partial curve]

Q: Which Potency does the source give for Cc1c(C(=O)OCc2ccccc2)[nH]c2c1C(=O)CC(c1ccco1)C2 (configuration not stated) here?
A: inconclusive: 12.6 µM [inhibitor, partial curve]

Q: Which Potency does the source give for Cc1cccc(N(C)S(=O)(=O)c2nnc(NC(=O)C(C)Oc3ccccc3)s2)c1 (configuration not stated) here?
A: inconclusive: 17.8 µM [inhibitor, partial curve]

Q: How did the Potency turn out when O=C(CNCC1CCCCC1)Nc1ccc(N2CCCCC2)cc1 was run?
A: inactive

Q: N#C/C(=N\Nc1c(Cl)cccc1Cl)C(=O)NN was tested. Which Potency did it give?
A: inconclusive: 22.4 µM [inhibitor, partial curve]

Q: With Cc1ccccc1NC(=O)CSc1nc2c(oc3ccccc32)c(=O)n1Cc1ccco1 as the compound, how does the Potency read?
A: inactive

Q: For CC1(C)C(C=C(Cl)Cl)C1C(=O)Nc1ccc([N+](=O)[O-])cc1 (configuration not stated), which Potency is on record?
A: inconclusive: 31.6 µM [inhibitor, single point]

Q: With Cc1ccc(C)c(OCc2nc3ccccc3n2C)c1 as the compound, how does the Potency read?
A: inconclusive: 15.8 µM [inhibitor, partial curve]

Q: How did the Potency turn out when CCCCc1[nH]nc2c1C1(C(=O)N(CC)c3ccccc31)C(C#N)=C(N)O2 (configuration not stated) was run?
A: inactive

Q: For COc1ccc(/C=C2/SC(c3ccc(C)cc3)=NC2=O)cc1OC, which Potency is on record?
A: active: 14.1 µM

Q: Which Potency does the source give for O=C(Oc1ccc(F)cc1C(=O)/C=C/c1cccs1)c1cccc([N+](=O)[O-])c1 here?
A: active: 14.1 µM

Q: How did the Potency turn out when COc1cc(O)c2c(=O)cc(-c3ccccc3)oc2c1 was run?
A: inconclusive: 1.12 µM [inhibitor, single point] and inconclusive: 4.47 µM [inhibitor, partial curve]

Q: For C[C@]12O[C@H]1[C@@H](O)C(Br)=C(CO)[C@H]2O, which Potency is on record?
A: inactive

Q: COc1ccc(OCCSc2nc(C)nc3ccccc23)cc1 was tested. Which Potency did it give?
A: inconclusive: 17.8 µM [inhibitor, partial curve]

Q: With Cc1ccc(-c2cc(C(=O)N/N=C/c3cccnc3)n[nH]2)o1 as the compound, how does the Potency read?
A: inconclusive: 2 µM [inhibitor, partial curve, poor fit]

Q: With COc1cccc(N2CC(C(=O)Nc3nnc(SCc4cccnc4)s3)CC2=O)c1 (configuration not stated) as the compound, how does the Potency read?
A: inconclusive: 12.6 µM [inhibitor, partial curve]
